Data taken from PMC9911399, “Two distinct binding modes provide the RNA-binding protein RbFox with extraordinary sequence specificity”.
Positions count from the first letter of the chain named. The list shows a part of the results.

T1: RBFOX1 RRM (Homo sapiens, UniProt Q9NWB1 109-208)
T1 sequence: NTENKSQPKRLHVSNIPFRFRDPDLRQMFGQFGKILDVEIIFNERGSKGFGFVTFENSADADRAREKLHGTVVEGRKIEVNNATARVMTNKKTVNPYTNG

B1: UUCUGUU (DNA:RNA)
RNA: GGGAGACCGGAAUUCAGAUUGUCCUUCUGUUUUAAAUCCCGUCGUAGCCACCA
DNA 1: CAATCTGAATTCCGGTCTCCC
DNA 2: TGGTGGCTACGACGGGATT
B2: GAGAGUC (DNA:RNA)
RNA: B1 RNA with U25G, U26A, C27G, U28A, U31C
DNA 1: CAATCTGAATTCCGGTCTCCC
DNA 2: TGGTGGCTACGACGGGATT
B3: UCUAGGG (DNA:RNA)
RNA: B1 RNA with U26C, C27U, U28A, U30G, U31G
DNA 1: CAATCTGAATTCCGGTCTCCC
DNA 2: TGGTGGCTACGACGGGATT
B4: CUCAACU (DNA:RNA)
RNA: B1 RNA with U25C, U28A, G29A, U30C
DNA 1: CAATCTGAATTCCGGTCTCCC
DNA 2: TGGTGGCTACGACGGGATT
B5: UCCACAG (DNA:RNA)
RNA: B1 RNA with U26C, U28A, G29C, U30A, U31G
DNA 1: CAATCTGAATTCCGGTCTCCC
DNA 2: TGGTGGCTACGACGGGATT
B6: AUAAUGC (DNA:RNA)
RNA: B1 RNA with U25A, C27A, U28A, G29U, U30G, U31C
DNA 1: CAATCTGAATTCCGGTCTCCC
DNA 2: TGGTGGCTACGACGGGATT
B7: GAUAUAG (DNA:RNA)
RNA: GGGAGACCGGAAUUCAGAUUGUCCGAUAUAGUUAAAUCCCGUCGUAGCCACCA
DNA 1: CAATCTGAATTCCGGTCTCCC
DNA 2: TGGTGGCTACGACGGGATT
B8: UGGAGAA (DNA:RNA)
RNA: B7 RNA with G25U, A26G, U27G, U29G, G31A
DNA 1: CAATCTGAATTCCGGTCTCCC
DNA 2: TGGTGGCTACGACGGGATT
B9: AUCGAAA (DNA:RNA)
RNA: B1 RNA with U25A, U28G, G29A, U30A, U31A
DNA 1: CAATCTGAATTCCGGTCTCCC
DNA 2: TGGTGGCTACGACGGGATT
B10: CAAUCUC (DNA:RNA)
RNA: B1 RNA with U25C, U26A, C27A, G29C, U31C
DNA 1: CAATCTGAATTCCGGTCTCCC
DNA 2: TGGTGGCTACGACGGGATT
B11: GAAUACC (DNA:RNA)
RNA: B7 RNA with U27A, A28U, U29A, A30C, G31C
DNA 1: CAATCTGAATTCCGGTCTCCC
DNA 2: TGGTGGCTACGACGGGATT
B12: AAGAGAU (DNA:RNA)
RNA: B7 RNA with G25A, U27G, U29G, G31U
DNA 1: CAATCTGAATTCCGGTCTCCC
DNA 2: TGGTGGCTACGACGGGATT
B13: GCCAACC (DNA:RNA)
RNA: B7 RNA with A26C, U27C, U29A, A30C, G31C
DNA 1: CAATCTGAATTCCGGTCTCCC
DNA 2: TGGTGGCTACGACGGGATT
B14: UGUUCUG (DNA:RNA)
RNA: B1 RNA with U26G, C27U, G29C, U31G
DNA 1: CAATCTGAATTCCGGTCTCCC
DNA 2: TGGTGGCTACGACGGGATT
B15: UGCUAGG (DNA:RNA)
RNA: B1 RNA with U26G, G29A, U30G, U31G
DNA 1: CAATCTGAATTCCGGTCTCCC
DNA 2: TGGTGGCTACGACGGGATT
B16: CAAUGAG (DNA:RNA)
RNA: B7 RNA with G25C, U27A, A28U, U29G
DNA 1: CAATCTGAATTCCGGTCTCCC
DNA 2: TGGTGGCTACGACGGGATT
B17: GCGUGCU (DNA:RNA)
RNA: B1 RNA with U25G, U26C, C27G, U30C
DNA 1: CAATCTGAATTCCGGTCTCCC
DNA 2: TGGTGGCTACGACGGGATT
B18: UACGCCA (DNA:RNA)
RNA: B1 RNA with U26A, U28G, G29C, U30C, U31A
DNA 1: CAATCTGAATTCCGGTCTCCC
DNA 2: TGGTGGCTACGACGGGATT
B19: CGUUGAG (DNA:RNA)
RNA: B7 RNA with G25C, A26G, A28U, U29G
DNA 1: CAATCTGAATTCCGGTCTCCC
DNA 2: TGGTGGCTACGACGGGATT
B20: AGGUCCU (DNA:RNA)
RNA: B1 RNA with U25A, U26G, C27G, G29C, U30C
DNA 1: CAATCTGAATTCCGGTCTCCC
DNA 2: TGGTGGCTACGACGGGATT
B21: GUGCCCC (DNA:RNA)
RNA: B7 RNA with A26U, U27G, A28C, U29C, A30C, G31C
DNA 1: CAATCTGAATTCCGGTCTCCC
DNA 2: TGGTGGCTACGACGGGATT
B22: GCACCCC (DNA:RNA)
RNA: B7 RNA with A26C, U27A, A28C, U29C, A30C, G31C
DNA 1: CAATCTGAATTCCGGTCTCCC
DNA 2: TGGTGGCTACGACGGGATT
B23: CCGUCUA (DNA:RNA)
RNA: B1 RNA with U25C, U26C, C27G, G29C, U31A
DNA 1: CAATCTGAATTCCGGTCTCCC
DNA 2: TGGTGGCTACGACGGGATT
B24: GACAUAU (DNA:RNA)
RNA: B7 RNA with U27C, G31U
DNA 1: CAATCTGAATTCCGGTCTCCC
DNA 2: TGGTGGCTACGACGGGATT
B25: AGCUGAC (DNA:RNA)
RNA: B1 RNA with U25A, U26G, U30A, U31C
DNA 1: CAATCTGAATTCCGGTCTCCC
DNA 2: TGGTGGCTACGACGGGATT
B26: AAAUAAC (DNA:RNA)
RNA: B7 RNA with G25A, U27A, A28U, U29A, G31C
DNA 1: CAATCTGAATTCCGGTCTCCC
DNA 2: TGGTGGCTACGACGGGATT
B27: GUGUCGU (DNA:RNA)
RNA: B1 RNA with U25G, C27G, G29C, U30G
DNA 1: CAATCTGAATTCCGGTCTCCC
DNA 2: TGGTGGCTACGACGGGATT
B28: UACUCUU (DNA:RNA)
RNA: B1 RNA with U26A, G29C
DNA 1: CAATCTGAATTCCGGTCTCCC
DNA 2: TGGTGGCTACGACGGGATT
B29: CCGUCCC (DNA:RNA)
RNA: B1 RNA with U25C, U26C, C27G, G29C, U30C, U31C
DNA 1: CAATCTGAATTCCGGTCTCCC
DNA 2: TGGTGGCTACGACGGGATT
B30: GUGUAAC (DNA:RNA)
RNA: B7 RNA with A26U, U27G, A28U, U29A, G31C
DNA 1: CAATCTGAATTCCGGTCTCCC
DNA 2: TGGTGGCTACGACGGGATT
B31: GGUCCUU (DNA:RNA)
RNA: B7 RNA with A26G, A28C, U29C, A30U, G31U
DNA 1: CAATCTGAATTCCGGTCTCCC
DNA 2: TGGTGGCTACGACGGGATT

These binders were tested against T1, RBFOX1 RRM (assay: EMSA; HiTS-Eq, 1 nM pool, 10 min; buffer printed only for the single-RNA assays: 10 mM Tris pH 7.5, 150 mM NaCl, 3.4 mM EDTA, 0.001% NP-40, 30 C). Conditions: tags: His6 N-terminal (pET28a); label: 5' 32P.
Method in brief: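 These values rest on relative association constants, computed from read-count changes of each RNA species versus the control reaction and normalised to the cognate motif. Reads came from free RNA recovered by 8% native PAGE after purified RbFox RRM (wild type or mutant) at increasing concentrations was equilibrated for 10 min in 50 µL with 1 nM of a 5′-radiolabelled pool with 7 randomized nucleotides and DNA-annealed flanks.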

Binder | binding signal
B1 | 0.0253 KA relative to UGCAUGU
B2 | 0.0183 KA relative to UGCAUGU
B3 | 0.00357 KA relative to UGCAUGU
B4 | 0.00198 KA relative to UGCAUGU
B5 | 0.00688 KA relative to UGCAUGU
B6 | 0.00508 KA relative to UGCAUGU
B7 | 0.0101 KA relative to UGCAUGU
B8 | 0.0194 KA relative to UGCAUGU
B9 | 0.00229 KA relative to UGCAUGU
B10 | 0.000563 KA relative to UGCAUGU
B11 | 0.00111 KA relative to UGCAUGU
B12 | 0.00833 KA relative to UGCAUGU
B13 | 0.00424 KA relative to UGCAUGU
B14 | 0.0328 KA relative to UGCAUGU
B15 | 0.017 KA relative to UGCAUGU
B16 | 0.0097 KA relative to UGCAUGU

Binder | binding signal
B17 | 0.0251 KA relative to UGCAUGU
B18 | 0.00185 KA relative to UGCAUGU
B19 | 0.0235 KA relative to UGCAUGU
B20 | 0.0111 KA relative to UGCAUGU
B21 | 0.00682 KA relative to UGCAUGU
B22 | 0.0059 KA relative to UGCAUGU
B23 | 0.00299 KA relative to UGCAUGU
B24 | 0.00404 KA relative to UGCAUGU
B25 | 0.0156 KA relative to UGCAUGU
B26 | 0.0016 KA relative to UGCAUGU
B27 | 0.0195 KA relative to UGCAUGU
B28 | 0.00553 KA relative to UGCAUGU
B29 | 0.00945 KA relative to UGCAUGU
B30 | 0.014 KA relative to UGCAUGU
B31 | 0.0031 KA relative to UGCAUGU
